Reference: the antibiotic and cytotoxicity screens of Wong et al. (2023)
The list shows a part of the results.

These molecules were tested on HSkMC (human skeletal muscle cells) (assay: cytotoxicity call (relative viability < 0.9)). Conditions: 10 µM.

| SMILES | cytotoxicity call |
| --- | --- |
| Cc1ccc(S(=O)(=O)N(C)C[C@H]2Oc3ccc(NC(=O)Nc4cccc5ccccc45)cc3CC(=O)N([C@H](C)CO)C[C@H]2C)cc1 | inactive |
| C[C@H](CO)N1C[C@H](C)[C@@H](CN(C)C(=O)NC2CCCCC2)Oc2ccc(NC(=O)Nc3ccc(C(F)(F)F)cc3)cc2CC1=O | inactive |
| Nn1c(CO)nc2ccccc21 | inactive |
| C[C@H]1CN([C@@H](C)CO)S(=O)(=O)c2ccc(C3=CCCCC3)cc2O[C@@H]1CN(C)S(=O)(=O)c1cn(C)cn1 | inactive |
| CCc1c(C(=O)OC)nnn1-c1nonc1N | inactive |
| Cc1noc(C)c1NC(=O)Nc1ccc2c(c1)C(=O)N([C@@H](C)CO)C[C@@H](C)[C@@H](CN(C)C(=O)NC1CCCCC1)OCCCC[C@@H](C)O2 | inactive |
| CC(C)NC(=O)N(C)C[C@@H]1Oc2ccc(NC(=O)CCCN(C)C)cc2C(=O)N([C@H](C)CO)C[C@@H]1C | inactive |
| C[C@@H]1CN([C@@H](C)CO)C(=O)c2cccc(NC(=O)Nc3ccccc3)c2O[C@H]1CN(C)Cc1ccc(C(F)(F)F)cc1 | inactive |
| C[C@H]1CN([C@@H](C)CO)S(=O)(=O)c2ccc(C#Cc3ccccc3F)cc2O[C@@H]1CN(C)C(=O)Cc1cccnc1 | inactive |
| C[C@@H]1CN([C@H](C)CO)C(=O)c2cccc(NC(=O)Nc3ccc4c(c3)OCO4)c2O[C@H]1CN(C)Cc1ccc(Cl)c(Cl)c1 | inactive |
| C[C@@H]1CCCCO[C@@H](CN(C)C(=O)Nc2ccc(F)cc2)[C@H](C)CN([C@H](C)CO)C(=O)c2cc(NC(=O)Nc3ccccc3)ccc2O1 | inactive |
